System: patients with treatment-resistant major depressive disorder (TRD)
Assay: Phase 1/2 clinical trial in patients suffering from TRD
Settings: for Patients experiencing at least one ADR: n=4

COc1ccc2[nH]cc(CCN(C)C)c2c1 [5-MeO-DMT]
Changes in safety laboratory analyses, vital signs, psychiatric safety assessments, measures of cognitive function (Part A and Part B): No clinically significant changes
Severity and outcome of ADRs (Part A, 12 mg and 18 mg groups): all of which were mild and resolved spontaneously
Patients experiencing at least one ADR (Part A, single 12 mg inhaled): 3 of 4
Patients experiencing at least one ADR (Part A, single 18 mg inhaled): 3 of 4
Outcome of ADRs (Part B, IDR): All ADRs resolved spontaneously
